Reference: PubChem BioAssay AID743279 (National Center for Advancing Translational Sciences (NCATS), 2014)
In all, about 360,000 compounds went through this assay and about 17,000 (4.7%) were called active. The inconclusive results got no clear call from the source; some entries with a clear call stand among them for comparison. No stated cut-off is given here; in the data, active means activity change below about -50%; inconclusive means mostly about -30% to -49%; inactive means weaker than that.

Assay: qHTS for Inhibitors of Inflammasome Signaling: IL-1-beta AlphaLISA Primary Screen
Conditions: THP-1 LPS/ATP IL-1B secretion, 16 h; at 57.5 µM, hits give low values
How it was run: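 Secreted IL-1B measured by AlphaLISA bead assay after 16 h compound exposure of THP-1 cells; compounds (final up to 57.5 uM) added 1 h before LPS (250 ng/mL) and ATP (1.25 mM) stimulation; lower signal means less secretion.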
On the % scale 0 is the no-effect control and ±100 the full control effect.

Activity change, inactive:
COc1ccc(CCn2nnnc2C(C(C)C)N2CCN(c3ncccn3)CC2)cc1OC (stereo not drawn) -11.7%
CCOc1cccc(N(C(=O)CNC(=O)c2ccco2)C(C(=O)NCC2CCCO2)c2ccccc2)c1 (stereo not drawn) -7.6%
CCN1CCN(c2ccc(S(=O)(=O)N3CCOCC3)cc2NC(=O)c2ccc(Cl)s2)CC1 -13.9%
CCOC(=O)c1[nH]c(C)c(C(=O)OCC)c1C -24.2%
COc1ccc(CN2C(=O)c3ccccc3C2c2nnnn2C(C)C)cc1OC (stereo not drawn) 0%
O=C(Cn1nnc(-c2ccccc2)n1)N1CCN(S(=O)(=O)c2ccc(Cl)cc2)CC1 0%
CCCc1cc(N2CCN(c3ccccn3)CC2)n2nc(C)c(-c3ccccc3)c2n1 -10.3%
O=C(CN(c1cccc(C(F)(F)F)c1)S(=O)(=O)c1ccc(Cl)c([N+](=O)[O-])c1)NCc1ccccc1 -10.7%

Activity change, inconclusive:
COc1ccc(C(N)CCc2ccc(C)o2)cc1 (stereo not drawn) -32.9%
CCN1CCc2nc3sc(C(=O)Nc4cccnc4Cl)c(N)c3cc2C1 -40.8%
CC(=O)N1CCSc2ccc(S(=O)(=O)NCCc3ccc(C)cc3)cc21 -39.7%
O=C(c1cc(C2CC2)nn1-c1ccccc1)N1CCN(c2ccccc2O)CC1 -44.5%
C=CCn1c(CCc2cc(C(C)(C)C)c(O)c(C(C)(C)C)c2)n[nH]c1=S -45.3%
COc1ccccc1NC(=O)N(Cc1ccco1)Cc1cc2cc(C)cc(C)c2[nH]c1=O -36.1%
O=C(Nc1ccc2c(c1)CN(Cc1ccc(CO)o1)CC2)c1ccc(C(F)(F)F)cc1 -48.5%
CC(C)(C)[C@@H]1CCC(=O)N(CC[C@H](Sc2ccccc2)c2ccccc2)CC1 -42.3%
CCCCNCCCOc1cc(Cl)ccc1Cl -46.8%
C=C(Cl)COc1ccc2c(CCCC)cc(=O)oc2c1 -39.1%
Cc1cccc(Nc2nc(N)c([N+](=O)[O-])c(NCc3ccco3)n2)c1 -38.8%
CC(=O)N(CCc1ccccc1)c1ccc2c(c1)C1CC2CCN1C(=O)OCc1ccccc1 (stereo not drawn) -33%
CN(Cc1ccccc1)C(=O)C1CCN(S(=O)(=O)c2cc([N+](=O)[O-])ccc2Cl)CC1 -30.9%

Activity change, active:
OCCN1CCN(c2nc(-c3ccccc3)c3cc(Cl)ccc3n2)CC1 -52.1%
CCOCCCNC(=O)/C(C#N)=C/c1ccc([N+](=O)[O-])o1 -111%
